Experimental findings from the supplement of paper PMC4604168 (melanoma cell lines) are described below.

The list shows a part of the results. Many values rest on one well or one pass, so single values are uncertain.

Experiment in all cases: cell count relative to DMSO control; melanoma cells; higher = more viable cells
Settings in all cases: library dose: low library concentration; 72 h

Assay [1] concerns WM115.
Assay [2] concerns WM1716.
Assay [3] deals with WM1745.
Assay [4] deals with WM3526.
Assay [5] concerns WM3619.
The test system of assay [6] is WM451Lu.
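Note: cell number obtained by counting DAPI-stained nuclei in high-throughput microscope images with image analysis software, screen run in 1,536-well plates.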

As for `CS(=O)(=O)CCNCc1ccc(-c2ccc3ncnc(Nc4ccc(OCc5cccc(F)c5)c(Cl)c4)c3c2)o1` [lapatinib] + COc1ccc2c(c1)CCC1C2CCC2(C)C(NCCCCCCN3C(=O)C=CC3=O)CCC12 [U73122] (first compound 0.8 µM, partner dose 0.4 µM), the cell count in assay [1] stood at 97.5%; in assay [2] it was 92%; in assay [3], 106%; in assay [4], 97.3%; in assay [5], 85.5%; in assay [6], 110%.
As for `CNC(=O)c1cc(Oc2ccc(NC(=O)Nc3ccc(Cl)c(C(F)(F)F)c3)cc2)ccn1` [sorafenib] + COc1ccc(COc2ccc(Cc3cnc(N)nc3N)cc2OC)cc1 [GW2580] (first compound 0.4 µM, partner dose 1 µM), the cell count in assay [1] was 99.9%; in assay [2] it was 99.7%; in assay [3], 99.6%; in assay [4], 104%; in assay [5] it was 96.1%; in assay [6], 120%.
`C=CCNC1=C2C[C@@H](C)C[C@H](OC)[C@H](O)[C@@H](C)/C=C(\C)[C@H](OC(N)=O)[C@@H](OC)/C=C\C=C(/C)C(=O)NC(=CC1=O)C2=O` [Tanespimycin] + CC(C)(C)c1cnc(CSc2cnc(NC(=O)C3CCNCC3)s2)o1 [SNS-032] (first compound 0.002 µM, partner dose 0.01 µM): the cell count came out at 103% in assay [1]; 90.6% in assay [2]; 125% in assay [3]; 88.1% in assay [4]; 114% in assay [5]; 99.4% in assay [6].
Take `CNC(=O)c1cc(Oc2ccc(NC(=O)Nc3ccc(Cl)c(C(F)(F)F)c3)cc2)ccn1` [sorafenib] + COCC[n+]1c2c(n(Cc3cnccn3)c1C)C(=O)c1ccccc1C2=O [YM155] (first compound 0.4 µM, partner dose 0.0004 µM): the cell count stood at 113% in assay [1]; 95.6% in assay [2]; 108% in assay [3]; 117% in assay [4]; 102% in assay [5]; 86.4% in assay [6].
Regarding `C[C@@H](Oc1cc(-c2cnn(C3CCNCC3)c2)cnc1N)c1c(Cl)ccc(F)c1Cl` [Crizotinib] + O=C(Nc1cccc(Cl)c1)Nc1ncc(CCNc2ncnc3ccsc23)s1 [SNS314] (first compound 0.2 µM, partner dose 0.0008 µM), the cell count in assay [1] stood at 76.5%; in assay [2], 113%; in assay [3], 112%; in assay [4], 94.8%; in assay [5], 126%; in assay [6], 88.7%.
Turning to `C[C@@H](Oc1cc(-c2cnn(C3CCNCC3)c2)cnc1N)c1c(Cl)ccc(F)c1Cl` [Crizotinib] + CN(NC(=O)CC(=O)NN(C)C(=S)c1ccccc1)C(=S)c1ccccc1 [STA4783] (first compound 0.2 µM, partner dose 0.006 µM), the cell count turned out to be 68.6% in assay [1]; 74.6% in assay [2]; 76.1% in assay [3]; 120% in assay [4]; 86.1% in assay [5]; 115% in assay [6].
Consider `C[C@@H](Oc1cc(-c2cnn(C3CCNCC3)c2)cnc1N)c1c(Cl)ccc(F)c1Cl` [Crizotinib] + CS(=O)(=O)CCNCc1ccc(-c2ccc3ncnc(Nc4ccc(OCc5cccc(F)c5)c(Cl)c4)c3c2)o1 [lapatinib] (first compound 0.2 µM, partner dose 0.8 µM), for which the cell count in assay [1] came out at 96%; in assay [2], 90.7%; in assay [3], 72.2%; in assay [4], 87.3%; in assay [5], 85.7%; in assay [6] it was 90%.
In the case of `C[C@@H](Oc1cc(-c2cnn(C3CCNCC3)c2)cnc1N)c1c(Cl)ccc(F)c1Cl` [Crizotinib] + O=c1cc(-c2cccc3c2Sc2ccccc2S3)oc(N2CCOCC2)c1 [KU55933] (first compound 0.2 µM, partner dose 1 µM), the cell count came to 100% in assay [1]; 107% in assay [2]; 82.7% in assay [3]; 86.4% in assay [4]; 114% in assay [5]; 96.9% in assay [6].
Take `CN1CCN(c2ccc3nc(-c4c(N)c5c(F)cccc5[nH]c4=O)[nH]c3c2)CC1` [Dovitinib] + O=C1NC(=O)/C(=C/c2ccc(-c3ccc(F)cc3O)o2)S1 [AS252424] (first compound 0.1 µM, partner dose 1 µM): the cell count was 90.3% in assay [1]; 117% in assay [2]; 80.8% in assay [3]; 91.1% in assay [4]; 87.2% in assay [5]; 92.7% in assay [6].
With `CN1CCN(c2ccc3nc(-c4c(N)c5c(F)cccc5[nH]c4=O)[nH]c3c2)CC1` [Dovitinib] + Nc1ncn([C@H]2C[C@H](O)[C@@H](CO)O2)c(=O)n1 [decitabine] (first compound 0.1 µM, partner dose 0.1 µM), the cell count came out at 82.8% in assay [1]; 84.3% in assay [2]; 75.4% in assay [3]; 77.6% in assay [4]; 81.5% in assay [5]; 98.7% in assay [6].
As to `CS(=O)(=O)CCNCc1ccc(-c2ccc3ncnc(Nc4ccc(OCc5cccc(F)c5)c(Cl)c4)c3c2)o1` [lapatinib] + CC1(C)NC(=O)N(c2ccc([N+](=O)[O-])c(C(F)(F)F)c2)C1=O [nilutamide] (first compound 0.8 µM, partner dose 1 µM), the cell count in assay [1] was 107%; in assay [2] it was 113%; in assay [3], 94.5%; in assay [4], 91%; in assay [5], 104%; in assay [6], 104%.
For the molecule `CS(=O)(=O)CCNCc1ccc(-c2ccc3ncnc(Nc4ccc(OCc5cccc(F)c5)c(Cl)c4)c3c2)o1` [lapatinib] + O=C(CCCCCCC(=O)Nc1ccccc1)NO [vorinostat] (first compound 0.8 µM, partner dose 0.08 µM), the cell count came out at 84.4% in assay [1]; 119% in assay [2]; 96.4% in assay [3]; 86.2% in assay [4]; 84.8% in assay [5]; 88.1% in assay [6].
For the molecule `C[C@@H](Oc1cc(-c2cnn(C3CCNCC3)c2)cnc1N)c1c(Cl)ccc(F)c1Cl` [Crizotinib] + O=S(=O)(c1ccccc1)N(CC(F)(F)F)c1ccc(C(O)(C(F)(F)F)C(F)(F)F)cc1 [T0901317] (first compound 0.2 µM, partner dose 1.4 µM), the cell count in assay [1] was 91.3%; in assay [2] it was 97%; in assay [3] it was 87.4%; in assay [4], 87.7%; in assay [5] it was 89.8%; in assay [6] it was 95.3%.
`CNC(=O)c1cc(Oc2ccc(NC(=O)Nc3ccc(Cl)c(C(F)(F)F)c3)cc2)ccn1` [sorafenib] + CCCCCCCCCCCC1=C(O)C(=O)C=C(O)C1=O [Embelin] (first compound 0.4 µM, partner dose 1.2 µM): the cell count in assay [1] stood at 108%; in assay [2], 93.8%; in assay [3], 91.6%; in assay [4] it was 135%; in assay [5], 99.7%; in assay [6], 99.1%.
On to `CNC(=O)c1cc(Oc2ccc(NC(=O)Nc3ccc(Cl)c(C(F)(F)F)c3)cc2)ccn1` [sorafenib] + N#Cc1c(O)c2c(-c3ccc(-c4ccccc4O)cc3)csc2[nH]c1=O [A769662] (first compound 0.4 µM, partner dose 2 µM), for which the cell count in assay [1] worked out at 92.6%; in assay [2], 80%; in assay [3] it was 87.5%; in assay [4], 82.8%; in assay [5] it was 126%; in assay [6], 101%.
In the case of `CS(=O)(=O)CCNCc1ccc(-c2ccc3ncnc(Nc4ccc(OCc5cccc(F)c5)c(Cl)c4)c3c2)o1` [lapatinib] + O=C(O)c1ccc2c(c1)nc(Nc1cccc(Cl)c1)c1ccncc12 [CX4945] (first compound 0.8 µM, partner dose 0.4 µM), the cell count in assay [1] was found to be 100%; in assay [2], 101%; in assay [3], 111%; in assay [4], 87.6%; in assay [5], 108%; in assay [6] it was 113%.
Turning to `CS(=O)(=O)CCNCc1ccc(-c2ccc3ncnc(Nc4ccc(OCc5cccc(F)c5)c(Cl)c4)c3c2)o1` [lapatinib] + C=CCNC1=C2C[C@@H](C)C[C@H](OC)[C@H](O)[C@@H](C)/C=C(\C)[C@H](OC(N)=O)[C@@H](OC)/C=C\C=C(/C)C(=O)NC(=CC1=O)C2=O [Tanespimycin] (first compound 0.8 µM, partner dose 0.002 µM), the cell count was determined as 117% in assay [1]; 7.48% in assay [2]; 95.6% in assay [3]; 96.2% in assay [4]; 131% in assay [5]; 123% in assay [6].
On to `C=CCNC1=C2C[C@@H](C)C[C@H](OC)[C@H](O)[C@@H](C)/C=C(\C)[C@H](OC(N)=O)[C@@H](OC)/C=C\C=C(/C)C(=O)NC(=CC1=O)C2=O` [Tanespimycin] + COCC[n+]1c2c(n(Cc3cnccn3)c1C)C(=O)c1ccccc1C2=O [YM155] (first compound 0.002 µM, partner dose 0.0004 µM), for which the cell count in assay [1] was determined as 111%; in assay [2] it was 99.5%; in assay [3], 97.5%; in assay [4], 104%; in assay [5] it was 107%; in assay [6] it was 76.3%.
With `CS(=O)(=O)CCNCc1ccc(-c2ccc3ncnc(Nc4ccc(OCc5cccc(F)c5)c(Cl)c4)c3c2)o1` [lapatinib] + Oc1nc(-c2ccc(C(F)(F)F)cc2)nc2c1CSCC2 [XAV939] (first compound 0.8 µM, partner dose 2 µM), the cell count in assay [1] amounted to 96.2%; in assay [2] it was 83.9%; in assay [3] it was 89.7%; in assay [4], 94.3%; in assay [5], 85.6%; in assay [6], 110%.
Consider `CN1CCN(c2ccc3nc(-c4c(N)c5c(F)cccc5[nH]c4=O)[nH]c3c2)CC1` [Dovitinib] + CC1(C)NC(=O)N(c2ccc([N+](=O)[O-])c(C(F)(F)F)c2)C1=O [nilutamide] (first compound 0.1 µM, partner dose 1 µM), for which the cell count in assay [1] is 87%; in assay [2], 114%; in assay [3], 102%; in assay [4], 71.7%; in assay [5], 99.9%; in assay [6], 118%.
Take `CS(=O)(=O)CCNCc1ccc(-c2ccc3ncnc(Nc4ccc(OCc5cccc(F)c5)c(Cl)c4)c3c2)o1` [lapatinib] + CC(C)CCN1c2nc(Nc3cc(F)c(O)c(F)c3)ncc2N(C)C(=O)C1C [BID1870] (first compound 0.8 µM, partner dose 0.2 µM): the cell count in assay [1] came to 85.9%; in assay [2] it was 117%; in assay [3], 90.3%; in assay [4], 82%; in assay [5], 84.7%; in assay [6], 100%.
`C[C@@H](Oc1cc(-c2cnn(C3CCNCC3)c2)cnc1N)c1c(Cl)ccc(F)c1Cl` [Crizotinib] + O=C(Nc1ccccc1)c1cc([N+](=O)[O-])ccc1Cl [GW9662] (first compound 0.2 µM, partner dose 2 µM): the cell count stood at 91.6% in assay [1]; 124% in assay [2]; 88.8% in assay [3]; 108% in assay [4]; 95.7% in assay [5]; 114% in assay [6].
As to `CN1CCN(c2ccc3nc(-c4c(N)c5c(F)cccc5[nH]c4=O)[nH]c3c2)CC1` [Dovitinib] + Nc1cccc2c1CN(C1CCC(=O)NC1=O)C2=O [lenalidomide] (first compound 0.1 µM, partner dose 1 µM), the cell count in assay [1] stood at 94.8%; in assay [2] it was 102%; in assay [3], 76%; in assay [4], 91.1%; in assay [5], 98%; in assay [6], 84.5%.
